According to the supplement of paper PMC3334620:
Over roughly 33,000 sequences, “E-score (-0.5 to 0.5)” has its median near -0.013; the highest 2% begin near 0.3. The list shows a part of the results.

target: T1, Msn1 (UniProt P22148); assay: PBM E-score (8-mer binding enrichment) (E-score (-0.5 to 0.5)); higher = stronger / more preferred TF binding; most listed sequences are background and not binding sites; conditions: protein concentration: 200 nM; construct: GST-full length
T1 sequence: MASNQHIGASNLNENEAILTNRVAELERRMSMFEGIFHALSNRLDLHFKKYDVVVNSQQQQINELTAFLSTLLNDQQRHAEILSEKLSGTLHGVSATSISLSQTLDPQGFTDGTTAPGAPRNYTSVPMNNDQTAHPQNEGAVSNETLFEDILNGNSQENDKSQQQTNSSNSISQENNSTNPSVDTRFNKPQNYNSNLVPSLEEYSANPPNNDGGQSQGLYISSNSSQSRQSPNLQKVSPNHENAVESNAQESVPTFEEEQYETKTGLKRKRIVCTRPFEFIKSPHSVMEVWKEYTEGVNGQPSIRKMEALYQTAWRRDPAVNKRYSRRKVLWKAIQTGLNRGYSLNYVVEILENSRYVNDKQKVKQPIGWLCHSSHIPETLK
Protocol: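 Universal 'all 10-mer' protein binding microarrays (Agilent AMADID 015681) probed with GST-tagged S. cerevisiae TFs (full-length or DBD) made by in vitro transcription/translation (PURExpress), about 100-200 nM. Bound TF was detected with fluorescent anti-GST. Each ungapped 8-mer (which stands for itself and its reverse complement) is scored by the PBM enrichment score (E-score), a modified Wilcoxon-Mann-Whitney statistic from -0.5 to +0.5, computed with the Universal PBM Analysis Suite. Scale: above 0.35 generally sequence-specific binding.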

| Sequence | PBM E-score |
| --- | --- |
| TCGCAGAA | -0.0578 |
| ACAGTTTC | 0.0802 |
| TACCAAGA | 0.0729 |
| ATGTCGGC | 0.121 |
| AACTGCCC | -0.105 |
| GCAGTTGA | 0.0439 |
| CCCCAGCA | -0.218 |
| CCAAAACG | -0.0791 |
| CCACAGGA | -0.0854 |
| AAGAGCCC | -0.133 |
| TACACCAA | -0.0113 |
| AGATGTCA | 0.309 |
| ACGTACAC | 0.186 |
| TATTATAA | 0.214 |
| AAAGGGCT | -0.0283 |
| ACGCGCGT | 0.236 |
| AGCCTCGG | -0.153 |
| GGCTAAGA | 0.0666 |
| AGCGCCGG | -0.0505 |
| AACCAGTT | 0.0337 |
| AGACATTG | 0.402 |
| ACGGAGTA | 0.094 |
| TACTGAAA | 0.155 |
| GCCCCGAC | -0.0904 |
| CGTACACC | -0.0293 |

| Sequence | PBM E-score |
| --- | --- |
| AAGCTCCC | -0.256 |
| GGTTATGA | -0.0333 |
| GGTGATCA | -0.123 |
| CAGGCTCA | -0.0362 |
| ACTCGCAG | -0.138 |
| TTATAAAA | 0.288 |
| GAACTGTC | 0.0776 |
| CGAACTCG | -0.00874 |
| AGGCGATG | -0.136 |
| GAGAGGAC | 0.0249 |
| CCTCAGCA | -0.159 |
| CCGTCGTA | 0.031 |
| CCTTAGAG | -0.174 |
| AACTCCCC | -0.152 |
| TCTACTCA | -0.163 |
| CCTATTCA | -0.0902 |
| CACTTGGC | -0.113 |
| CCGTAATC | 0.0367 |
| AAGACCCT | -0.134 |
| AAGGACCC | -0.0634 |
| ACGAGATA | 0.13 |
| GAAAATCC | 0.102 |
| GTATGGAC | 0.335 |
| GCGCACGA | -0.0418 |
| GGATATCA | -0.043 |

| Sequence | PBM E-score |
| --- | --- |
| TCTCCACA | -0.0349 |
| CACTGCGG | -0.0628 |
| CAGAGGCC | -0.33 |
| AACAATGC | 0.0219 |
| CTGAGTAC | -0.0547 |
| GCTCGGCA | -0.13 |
| CGTCTAAA | -0.0424 |
| CCGGCATA | 0.054 |
| GGTGCGAC | -0.168 |
| CAATCTAC | -0.26 |
| GCTCAATA | -0.00623 |
| CCAGATAC | -0.0938 |
| AGGCCTAG | -0.187 |
| AGTTCAAA | -0.0504 |
| AACCCTAT | 0.0774 |
| CAGAATAA | 0.0293 |
| ATAAATAG | 0.0654 |
| CTGCAGAC | 0.135 |
| GCATTATA | 0.0347 |
| AAGTTCGC | 0.0268 |
| ACTGCCCC | -0.102 |
| GGAATGAA | 0.0811 |
| AAGTACAT | 0.356 |
| TCAGTAGA | 0.143 |
| TCCTGTCA | 0.049 |

| Sequence | PBM E-score |
| --- | --- |
| CTAGGAAG | 0.00053 |
| CACCCGTG | -0.213 |
| CGTGGTTC | -0.111 |
| AATTCCCC | -0.173 |
| CTTTAGAC | 0.0689 |
| GTCTATTA | -0.0806 |
| CAATGTAC | 0.195 |
| GGATCAAC | 0.0032 |
| GATGACTA | -0.0556 |
| ATACTAGC | 0.144 |
| AACGTTAA | 0.137 |
| ATTAGGAA | -0.00879 |
| AGCGGACT | -0.229 |
| GATTTCCC | 0.0168 |
| CGGCTAAC | -0.0264 |
| ATTTACAC | -0.168 |
| CCCCATTA | -0.181 |
| GAATGTAC | 0.342 |
| CCGGCCAG | -0.0305 |
| GATAGAAC | 0.0707 |
| ATTGCTGA | 0.0857 |
| AGATCTTC | -0.0799 |
| ATCCGGAC | 0.297 |
| AAGAACGC | 0.0215 |
| CTCGAGCC | -0.128 |

| Sequence | PBM E-score |
| --- | --- |
| ATTGGTTG | -0.0366 |
| ATAAAAAT | 0.231 |
| CTGTAATA | 0.0133 |
| CCCGGGGA | -0.166 |
| AATATCAA | 0.0702 |
| AGCTTGGA | -0.105 |
| ACAGGTCC | -0.155 |
| TAACACAA | 0.0505 |
| AGACAAGA | 0.3 |
| CGGTAGAC | 0.0116 |
| AACGTCCT | 0.139 |
| AATTGCGA | 0.00719 |
| GCTGCCGA | -0.216 |
| CCGCCTAA | -0.0211 |
| GTACTCTA | -0.132 |
| GAACACTC | -0.0457 |
| CTTTCGCC | -0.122 |
| ACAACGCT | -0.0576 |
| AGTAGGTA | 0.106 |
| GAAAGTTC | -0.0389 |
| GATCGAAA | 0.0195 |
| GAAGATTC | 0.0393 |
| AAGAGTTC | -0.152 |
| TCCTTCGA | 0.11 |
| ATAAGGTA | -0.0641 |

| Sequence | PBM E-score |
| --- | --- |
| AGGTCCGG | 0.041 |
| ACAGAACG | -0.0147 |
| CTCCGCTA | -0.184 |
| AAGTCCGC | 0.191 |
| CGCCTGCC | -0.287 |
| GCTACCGA | -0.00569 |
| AAGCTCAT | -0.152 |
| GCTCTCAC | -0.29 |
| CCTCACCC | -0.21 |
| AGGATCCA | -0.078 |
| AACCTCTT | 0.109 |
| AACGCTAC | -0.137 |
| GCAAATCA | 0.0766 |
| ATATCGTC | 0.00135 |
| CCGAGAAC | 0.167 |
| ACGCTGCA | -0.169 |
| GGATCGAA | -0.0395 |
| CAACCGTA | -0.205 |
| AAATAGCG | 0.187 |
| CGCTATCA | -0.112 |
| GACGCACC | 0.0166 |
| CAAAACTA | 0.193 |
| AATCCTCA | -0.23 |
| AAGCTGCC | -0.0824 |
| ACCTTGTA | 0.0634 |

| Sequence | PBM E-score |
| --- | --- |
| GTCGGTGA | -0.109 |
| GATCCCTA | -0.227 |
| CACGAAAA | 0.233 |
| AACTCCCA | -0.0752 |
| ACACCTTG | 0.0444 |
| AGGCCTAA | 0.126 |
| ATAATATG | 0.137 |
| CCCCTGTC | -0.221 |
| CCGTTTTC | 0.072 |
| AACCCCGT | 0.0235 |
| ACACTTAA | 0.00712 |
| ATGTAGGG | -0.0843 |
| CTTGCTAC | 0.00039 |
| ACTGGATA | 0.0615 |
| AGTTAATG | 0.138 |
| ACGTGGTC | -0.153 |
| CCCACGCA | -0.0468 |
| ATTAATCC | 0.0592 |
| TCTGCTAA | 0.0829 |
| CATCGCGC | -0.0919 |
| GCCTACGC | -0.059 |
| CTCGCAAC | -0.0112 |
| AATAATAG | -0.0638 |
| ACGTGGTA | -0.0538 |
| CAAAAAAG | 0.203 |

| Sequence | PBM E-score |
| --- | --- |
| AAAGTATG | 0.00803 |
| GATACCAA | 0.0965 |
| CTTGACGA | -0.0252 |
| CGAGTCGA | -0.0283 |
| TCGTTTCA | 0.151 |
| CGGGAGAG | -0.127 |
| ACATTGCC | 0.172 |
| GATACTCC | -0.0781 |
| AGCGAATC | 0.03 |
| AAACAGTC | -0.209 |
| CAGTATAA | 0.236 |
| GCCTAGAC | -0.124 |
| AAATTGAA | 0.147 |
| AGGAGGGG | -0.26 |
| GCACATTA | -0.0601 |
| AACTCGCA | 0.0398 |
| CTCACGAA | -0.0922 |
| AAGAGAAC | -0.00781 |
| CCTAGCCA | -0.0603 |
| ATATGGGA | -0.0277 |
| CCATGGAG | -0.119 |
| CAAAGAAG | 0.033 |
| AGCGGGTC | -0.119 |
| GACAGAAA | 0.291 |
| GACAGCAC | 0.13 |

| Sequence | PBM E-score |
| --- | --- |
| CGCAGCAG | 0.0309 |
| AGGCAGGA | 0.00037 |
| GTGCCGAA | 0.0855 |
| AGTTGTAC | 0.157 |
| CGAGAGTC | -0.131 |
| AAGAACAG | -0.0452 |
| ATCTGTCC | 0.387 |
| CGGCTTAC | 0.051 |
| AAGGAAAT | -0.00737 |
| ACTCCTCT | -0.137 |
| CTGGGCAC | -0.185 |
| CATACTAA | 0.234 |
| CTATTCTC | -0.0396 |
| ACTGATAA | 0.103 |
| TAGAGATA | -0.0154 |
| CCGACGTC | 0.0553 |
| CGCTCTTA | 0.176 |
| CTGACCCA | -0.239 |
| GCGGCACC | 0.00386 |
